Laboratory results: PubChem BioAssay AID904 (National Center for Advancing Translational Sciences (NCATS), 2007)
About 530 (0.96%) of roughly 55,000 compounds were called active. The shares of active, inactive and inconclusive entries below differ from those in the screen. Calls follow the shape of the dose curve; as a rule, active = well fitted cell-killing curve with a large enough effect; inconclusive = small, poorly fitted or top-dose-only effect; inactive = no such curve, though single readings can be large or run the other way. A potency beside an inconclusive call is a rough fit, not a confirmed value.

Assay: qHTS Screen for Compounds that Selectively Target Cancer Cells with p53 Mutations: Cytotoxicity of p53 Null Cells at the Nonpermissive Temperature; also: nearly all actives have a fitted effect of over 50% in size;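 as to activity, negative = cell killing: 0% = DMSO only and -100% = full killing by 100 µM tamoxifen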
Conditions: H1299 p53-null (neo) cells, 39C, ATPlite viability, 24 h; activity, negative = cell killing: at 46.1 µM (top of the series)
How it was run: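 Concentration-response (up to 46 uM) was run for 24 h at the nonpermissive 39C on H1299-p53A138V or H1299-neo cells. ATP content was measured with ATPlite luminescence. AC50 values were Hill-modeled after normalizing between DMSO and 100 uM tamoxifen killing.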
Potency is read from the fitted curve at half-maximal effect; tags tell the direction and shape of the fitted curve.

Structure (SMILES) | Potency | activity, negative = cell killing
CCc1ccc(CNC(=O)c2cc3cc(S(=O)(=O)N4CCCCC4)ccc3n2C)cc1 | inconclusive: 0.0079 µM [cytotoxic, full curve, poor fit] | –
CCCn1ccc2c(OCC(=O)Nc3cc(C)ccc3C)cccc2c1=O | inconclusive: 0.0501 µM [cytotoxic, full curve, poor fit] | –
O=C(CC1(O)C(=O)N(CCc2ccccc2)c2ccc(Br)cc21)c1ccc(F)cc1 (stereo unspecified) | inconclusive: 31.6 µM [cytotoxic, single point] | –
COc1cccc(-c2cn3c(n2)sc2cc(C(=O)NCCCc4ccccc4)ccc23)c1 | inconclusive: 10 µM [cytotoxic, partial curve] | –
CC(=O)c1ccc(S(=O)(=O)Nc2ccc(-c3ccc(N4CCCCCC4)nn3)cc2)cc1 | inconclusive: 10 µM [cytotoxic, partial curve, poor fit] | –
CCCNS(=O)(=O)c1ccc2nc(NC(=O)c3ccc(F)cc3)sc2c1 | inactive | –
COc1ccc(N2CCN(C(=O)c3cccc(-n4c(C)nc5cccnc54)c3)CC2)cc1 | inactive | –
CCCCCCc1cc2cc(C(=O)NCc3ccccc3)c(=N)oc2cc1O | inactive | –
O=C(Nc1ccc(S(=O)(=O)N2CCCCC2c2cccnc2)cc1)c1ccc(Br)cc1 (stereo unspecified) | inactive | –
Cc1cccc(NC(=O)c2c(C)cc(C)nc2SCC(=O)c2ccccc2)c1 | inconclusive: 15.8 µM [cytotoxic, single point] | –
Cc1cccc(NC(=O)c2ccc3nc(C(C)C)oc3c2)c1C | inconclusive: 2.82 µM [cytotoxic, partial curve, poor fit] | –
COc1cc(OC)cc(-c2cc3nc(C)c(CCC(=O)NCc4ccccc4)c(C)n3n2)c1 | inconclusive: 0.0398 µM [cytotoxic, full curve, poor fit] | –
Cc1cc(F)ccc1S(=O)(=O)Nc1ccc2oc3c(c2c1)CC(C)CC3 (stereo unspecified) | inconclusive: 31.6 µM [cytotoxic, single point] | –
COc1ccc(-c2noc(CSc3nnc(C)n3-c3ccc(C)cc3)n2)cc1OC | inactive | –
CC(=O)c1ccc(N2CCN(C(=O)C3CCN(S(=O)(=O)c4c(C)noc4/C=C/c4ccc(C)cc4)CC3)CC2)cc1 | inactive | –
Cc1ccccc1Nc1c(-c2ccc(N3CCOCC3)cc2)nc2ccccn12 | active: 0.316 µM | –
Cc1ccc(SCC(=O)Nc2ccc3oc(-c4ccccc4C)nc3c2)cc1 | inconclusive: 7.94 µM [cytotoxic, partial curve] | –
CN1CCc2c(sc(NC(=O)CSc3ccccc3)c2-c2nc3ccccc3s2)C1 | inconclusive: 31.6 µM [cytotoxic, single point] | –
CC(=O)c1ccc(NC(=O)c2cc(-c3ccc(C)s3)nc3ccccc23)cc1 | inconclusive: 1 µM [cytotoxic, full curve] | –
CCOc1ccccc1CNCc1cccn1-c1nnc(N2CCN(c3ccccc3)CC2)s1 | inconclusive: 25.1 µM [cytotoxic, single point] | –
O=C(Nc1ccccc1F)c1ccc2c(Cl)c3c(nc2c1)CCC3 | active: 1.58 µM | –
COc1ccc(-n2ncc3c(NC4CCCC4)ncnc32)cc1 | inactive | –

Structure (SMILES) | Potency | activity, negative = cell killing
CCc1ccc(Nc2cc(C)nc3nc(Cc4ccc(Cl)cc4)nn23)cc1 | inconclusive: 12.6 µM [cytotoxic, single point] | –
Cc1cccc(NC(=O)CSc2nc3ccc(NC(=O)c4cccs4)cc3s2)c1 | inactive | –
CCc1nnc2c(NCc3ccc(F)cc3)nc3ccccc3n12 | inconclusive: 0.631 µM [cytotoxic, full curve, poor fit] | –
CCc1c(C)sc2c1CCN(Cc1ccc(F)cc1)C2c1ccccc1 (stereo unspecified) | inconclusive: 14.1 µM [cytotoxic, single point] | –
CCc1ccc(CN(C(=O)c2cc3ccccc3oc2=O)C2CCS(=O)(=O)C2)cc1 (stereo unspecified) | inactive | –
CCOc1ccc(-c2cnc(NCc3ccc(OC)cc3OC)n2C)cc1 | inconclusive: 0.794 µM [cytotoxic, full curve] | –
Cc1cc(O)c(C(c2ccccc2Cl)N2CCN(c3ccccc3)CC2)c(=O)n1Cc1ccco1 (stereo unspecified) | inconclusive: 0.0063 µM [cytotoxic, full curve, poor fit] | –
O=C(CSc1oc(-c2ccco2)nc1S(=O)(=O)c1ccc(Cl)cc1)c1ccc(Cl)cc1 | inactive | –
CCC(Sc1nc2ccccc2c2nc(CCn3c(C)nc4ccccc43)nn12)C(=O)Nc1ccc(F)cc1 (stereo unspecified) | inactive | –
O=C(CSc1c2c(nc3ccc(Cl)cc13)CCCC2)NCc1ccccc1Cl | inconclusive: 10 µM [cytotoxic, partial curve] | –
CCCN(CCC)CC(O)Cn1cc(/C=C/C(=O)c2ccc(OC)cc2)c2ccccc21 (stereo unspecified) | inconclusive: 12.6 µM [cytotoxic, single point] | –
COC(=O)c1ccc(NC(=O)CCc2c(C)nn(-c3ccc(N4CCOCC4)nn3)c2C)cc1 | inconclusive: 7.94 µM [cytotoxic, full curve, poor fit] | –
O=C(Nc1ccc(F)cc1)c1ccc(Cn2nc(N3CCN(c4ccccc4)CC3)ccc2=O)o1 | inactive | –
CCN1CCN(CCCNC(=O)Cn2c(-c3cccs3)cc3ccccc32)CC1 | inactive | –
COc1ccccc1N1CCN(CCCNC(=O)c2nnc(Cc3c(F)cccc3Cl)o2)CC1 | inactive | –
COc1ccc(S(=O)(=O)N(CC(=O)Nc2ccc(OC)cc2OC)c2ccc(Cl)cc2)cc1 | inactive | –
Cc1ccc(NC(=O)c2ncoc2-c2ccco2)cc1Cl | inconclusive: 0.0251 µM [cytotoxic, full curve, poor fit] | –
Cc1ccc(-c2nc3n(n2)Cc2ccccc2-3)cc1 | inconclusive: 6.31 µM [cytotoxic, partial curve, poor fit] | –
CCn1cc(C(=O)NCCc2ccc(C)cc2)c(=O)c2cc(S(=O)(=O)N3CCc4ccccc4C3)ccc21 | inconclusive: 5.01 µM [cytotoxic, single point] | –
Cc1ccc(NC(=O)CSc2nc3ccc(NC(=O)COc4ccc(C)cc4)cc3s2)cc1 | inconclusive: 5.01 µM [cytotoxic, partial curve] | –
COc1cc(NC(=O)CCCc2nnc3n(CC(C)C)c(=O)c4sccc4n23)cc(OC)c1 | inconclusive: 35.5 µM [cytotoxic, single point] | –
O=c1ccnc(Sc2ncccc2[N+](=O)[O-])[nH]1 | inactive | –

Structure (SMILES) | Potency | activity, negative = cell killing
COCCCN1C(=O)c2[nH]nc(-c3ccccc3O)c2C1c1ccc(OCc2ccccc2)cc1 (stereo unspecified) | inconclusive: 31.6 µM [cytotoxic, single point] | –
Oc1ccc(-c2nc(-c3ccccc3)c(-c3ccc(Br)cc3)[nH]2)cc1 | inconclusive: 22.4 µM [cytotoxic, single point] | –
Cc1cc(C)c(NC(=O)CCn2c(=O)c3cccn3c3ccccc32)c(C)c1 | inconclusive: 22.4 µM [cytotoxic, single point] | –
CCOc1ccc(NC(=O)c2nc3nc(C)cc(C(F)F)n3n2)cc1 | inconclusive: 10 µM [cytotoxic, single point] | –
Cc1cccc(NC(=O)c2cc3ccccc3o2)c1 | inconclusive: 10 µM [cytotoxic, partial curve] | –
Cc1ccc(NC(=O)c2ccc(CNS(=O)(=O)c3ccc4c(c3)C(C)(C)C(=O)N4C)cc2)cc1C | inconclusive: 10 µM [cytotoxic, partial curve, poor fit] | –
CCOC(=O)C1CCN(C(=O)c2ccc(NC(=O)c3nsc4ccccc34)cc2)CC1 | inconclusive: 31.6 µM [cytotoxic, partial curve, poor fit] | –
O=C(Nc1cccc(C(=O)N2CCN(c3cccc(Cl)c3)CC2)c1)c1nsc2ccccc12 | inconclusive: 0.158 µM [cytotoxic, full curve] | –
O=C(CCn1cnnn1)Nc1cc(C(F)(F)F)cc(C(F)(F)F)c1 | inactive | –
CC(C)Oc1cccc(C2CC(=O)Nc3cc4c(cc32)OCO4)c1 (stereo unspecified) | inconclusive: 15.8 µM [cytotoxic, partial curve, poor fit] | –
Cc1ccc(Cl)cc1N1CCN(C(=O)CCCn2c(=O)[nH]c3ccc(Br)cc3c2=O)CC1 | inconclusive: 20 µM [cytotoxic, single point] | –
Cc1cccc(-c2nc3c4ccccc4n(CC(=O)Nc4cccc(F)c4)c(=O)n3n2)c1 | inconclusive: 35.5 µM [cytotoxic, single point] | –
CCC(=O)C1=C(c2cccc([N+](=O)[O-])c2)N(C(=O)CC)n2c(nnc2C2CCCCC2)S1 | inactive | –
COc1ccc(CNC(=O)c2ccc(NC(=O)N3CCSc4ncccc43)cc2)c(OC)c1 | inconclusive: 0.0631 µM [cytotoxic, full curve] | –
COc1ccc(NC(=O)c2cc(C(C)=O)n3ccccc23)cc1Cl | – | inconclusive: -30.4% [cytotoxic]
Cc1ccc(NC(=O)CSc2nnc(NC(=O)NC3CCCCC3)s2)cc1 | inactive | –
COc1ccc(NC(=O)c2ccco2)cc1NC(=O)c1cc(Br)ccc1Cl | inactive | –
O=C(Nc1ccc2nc(-c3cccnc3)[nH]c2c1)C12CC3CC(CC(C3)C1)C2 | inconclusive: 12.6 µM [cytotoxic, partial curve] | –
CCOC(=O)c1ccccc1NC(=O)CSc1cn(CC(=O)N2CCCCCC2)c2ccccc12 | inactive | –
CCCCN(CC)C(=O)CSc1nc2ccccc2c(=O)n1Cc1ccco1 | inconclusive: 31.6 µM [cytotoxic, single point] | –
COc1cc(-c2nc(-c3ccccc3)c(-c3ccc(Br)cc3)[nH]2)cc(OC)c1O | inconclusive: 31.6 µM [cytotoxic, single point] | –
COc1ccc(Nc2nc3c(S(=O)(=O)c4ccc(C)cc4)nnn3c3ccsc23)cc1Cl | inconclusive: 6.31 µM [cytotoxic, full curve, poor fit] | –
